Assay results published in patent US20140187491A1 (Bayer, published 2014).

T1: human LGR7/RXFP1 receptor (human, UniProt Q9HBX9 1-757)
T1 sequence (looked up): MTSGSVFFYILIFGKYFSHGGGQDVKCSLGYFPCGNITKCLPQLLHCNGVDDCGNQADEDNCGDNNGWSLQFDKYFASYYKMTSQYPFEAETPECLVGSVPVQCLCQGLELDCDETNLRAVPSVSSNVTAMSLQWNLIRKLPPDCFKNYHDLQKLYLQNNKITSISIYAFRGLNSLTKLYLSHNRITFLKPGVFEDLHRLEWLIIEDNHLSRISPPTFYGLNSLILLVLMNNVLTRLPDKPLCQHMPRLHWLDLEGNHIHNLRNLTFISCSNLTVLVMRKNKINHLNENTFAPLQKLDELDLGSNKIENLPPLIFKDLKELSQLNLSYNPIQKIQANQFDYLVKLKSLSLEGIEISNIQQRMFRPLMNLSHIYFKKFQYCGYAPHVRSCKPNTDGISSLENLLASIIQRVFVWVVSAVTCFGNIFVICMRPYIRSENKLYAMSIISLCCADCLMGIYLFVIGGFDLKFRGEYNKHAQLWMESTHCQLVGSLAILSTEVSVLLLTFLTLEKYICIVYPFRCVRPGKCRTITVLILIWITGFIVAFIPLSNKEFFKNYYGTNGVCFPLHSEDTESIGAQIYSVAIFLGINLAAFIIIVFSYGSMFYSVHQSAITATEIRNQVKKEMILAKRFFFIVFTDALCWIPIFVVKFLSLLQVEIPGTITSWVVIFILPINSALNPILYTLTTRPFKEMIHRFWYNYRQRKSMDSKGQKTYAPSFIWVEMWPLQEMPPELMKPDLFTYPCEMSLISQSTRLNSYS


Biological target: T1, human LGR7/RXFP1 receptor
Test: cell-based or functional assay

EC50 (M), CRE-luciferase reporter in CHO-CRE-LGR7 cells [M] | Binder
7.4e-10 | scR-Fc 7 (Fc fusion) [letters of human IgG1 Fc omitted]GGSGGSGGSPQLYSALANKCCHVGCTKRSLARFCGGGSGGGSGSWMEEVIKLCGRELVRAQIAICGMSTWS
3.4e-09 | scR-Fc 15 (Fc fusion) QLYSALANKCCHVGCTKRSLARFCGGGSGGGSGSWMEEVIKLCGRELVRAQIAICGMSTWSGSGSGS[letters of human IgG1 Fc omitted]
3.9e-07 | scR-Fc 14 (Fc fusion) QLYSALANKCCHVGCTKRSLARFCGGGSGGGSGSWMEEVIKLCGRELVRAQIAICGMSTWS[letters of human IgG1 Fc omitted]
2.4e-09 | scR-Fc 3 (Fc fusion) QLYSALANKCCHVGCTKRSLARFCGGGSGGGSGSWMEEVIKLCGRELVRAQIAICGMSTWSGGSGGSP[letters of human IgG1 Fc omitted]
1.3e-10 | scR-Fc 5 (Fc fusion) [letters of human IgG1 Fc omitted]GGSPQLYSALANKCCHVGCTKRSLARFCGGGSGGGSGSWMEEVIKLCGRELVRAQIAICGMSTWS

The remaining lines, values behind:

Binder | EC50 (M), CRE-luciferase reporter in CHO-CRE-LGR7 cells [M]
scR-Fc 16 (Fc fusion) QLYSALANKCCHVGCTKRSLARFCGGGSGGGSGSWMEEVIKLCGRELVRAQIAICGMSTWSGSGSGS[letters of human IgG1 Fc with C226A C229A (EU numbers) omitted] | 2.5e-09
scR-Fc 2 (Fc fusion) QLYSALANKCCHVGCTKRSLARFCGGGSGGGSGSWMEEVIKLCGRELVRAQIAICGMSTWSGGSP[letters of human IgG1 Fc omitted] | 3.3e-09
scR-Fc 4 (Fc fusion) QLYSALANKCCHVGCTKRSLARFCGGGSGGGSGSWMEEVIKLCGRELVRAQIAICGMSTWSGGSGGSGGSP[letters of human IgG1 Fc omitted] | 3.1e-09
scR-Fc 6 (Fc fusion) [letters of human IgG1 Fc omitted]GGSGGSPQLYSALANKCCHVGCTKRSLARFCGGGSGGGSGSWMEEVIKLCGRELVRAQIAICGMSTWS | 4.2e-10
scR-Fc 1 (Fc fusion) EQKLISEEDLQLYSALANKCCHVGCTKRSLARFCGGGSGGGSGSWMEEVIKLCGRELVRAQIAICGMSTWSIEGRMD[letters of human IgG1 Fc with S219A (EU numbers) omitted] | 1.3e-08
